Results published in the supplement of paper PMC3334620.
Over roughly 33,000 sequences, “E-score (-0.5 to 0.5)” has its median near -0.017; the highest 2% begin near 0.3. The list shows a part of the results.

These sequences were tested against T1, Sut1 (UniProt P53032) (assay: PBM E-score (8-mer binding enrichment) (E-score (-0.5 to 0.5)); higher = stronger / more preferred TF binding; most listed sequences are background and not binding sites). Conditions: protein concentration: 200 nM; construct: GST-full length.
T1 sequence: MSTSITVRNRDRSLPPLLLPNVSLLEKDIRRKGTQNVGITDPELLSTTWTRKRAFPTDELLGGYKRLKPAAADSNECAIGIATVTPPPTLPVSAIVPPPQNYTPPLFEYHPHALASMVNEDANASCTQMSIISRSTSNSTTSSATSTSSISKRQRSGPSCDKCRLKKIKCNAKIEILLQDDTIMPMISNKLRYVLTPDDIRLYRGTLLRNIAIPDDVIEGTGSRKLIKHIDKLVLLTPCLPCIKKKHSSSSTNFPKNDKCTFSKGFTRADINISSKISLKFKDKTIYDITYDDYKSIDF
In short: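 E-scores (a modified Wilcoxon-Mann-Whitney statistic) were assigned by the Universal PBM Analysis Suite to every ungapped eight-base word pooled with its reverse complement. The input came from universal all-10-mer Agilent arrays made double-stranded by primer extension and probed with GST-tagged yeast transcription factors at about 100-200 nM. Fluorescent anti-GST detected bound protein, and masliner normalised the scans.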

Row | Sequence | PBM E-score
1 | CTGGCCTA | -0.299
2 | CACGGCTA | -0.123
3 | AGGGCTAA | -0.0653
4 | ACTAGCTA | 0.0184
5 | ACGAGAGC | -0.103
6 | GCGAGATA | 0.0704
7 | AACTATCG | 0.00516
8 | TCGGACCA | 0.201
9 | CTATGACC | -0.0195
10 | GCGCTTTA | -0.0225
11 | CCTTTCGA | 0.00417
12 | CGCTTCAA | 0.183
13 | AGTTCTTC | 0.0133
14 | ATCTTTTG | 0.0364
15 | ACTACACG | -0.0104
16 | ACATGCCG | -0.0326
17 | TATGGGGA | 0.0437
18 | AAGGACGT | -0.0097
19 | ATCATAGA | 0.162
20 | ATCGGTAC | 0.0811
21 | TAGCGCTA | -0.13
22 | CTGGCTTC | -0.15
23 | ACGAAAAC | 0.133
24 | CTATCGTC | -0.156
25 | CAAAACTG | 0.0319

Row | Sequence | PBM E-score
26 | ATCCCAAC | -0.134
27 | AAGCGGCT | 0.0849
28 | AAAGTCGT | 0.131
29 | ACAGGCGA | -0.077
30 | CTAGTAAA | 0.204
31 | ATTAAACG | 0.24
32 | CGACTGCC | -0.217
33 | GACCTTCA | -0.075
34 | ACAGCTCG | -0.087
35 | AGCAGCCG | -0.165
36 | AGAATGCG | -0.0543
37 | ATCTCGCA | 0.175
38 | TCAGCCAA | -0.0208
39 | AAGACTAA | 0.0716
40 | GTTTAAAA | 0.19
41 | AATGTGAG | 0.13
42 | TGATGGAA | 0.0273
43 | ATGTCACA | 0.0421
44 | CGCGTCAC | -0.162
45 | CTCTTGGC | -0.314
46 | CCTTTGAC | -0.125
47 | GAAGCTGC | -0.265
48 | CCAACTTA | 0.155
49 | GCCATTGA | 0.172
50 | ATTTCAGG | 0.00587

Row | Sequence | PBM E-score
51 | AAGTGACC | -0.0256
52 | ATGTTGGC | -0.0785
53 | CGAAGGCA | -0.06
54 | CGACAGCG | -0.0323
55 | TACGAATA | 0.227
56 | AGGCATTG | -0.0771
57 | ACACCCAA | 0.103
58 | AGTATCGA | 0.145
59 | GGACACTA | -0.0784
60 | CGCACTGA | -0.155
61 | ACAGGACA | 0.0807
62 | ACCCGCCG | 0.00658
63 | GCTAAGGA | -0.171
64 | AGACTAGC | -0.153
65 | CTAGCGTA | -0.175
66 | AAGTTGCT | 0.00535
67 | ACTTTTGC | 0.102
68 | ACCTGTTA | -0.0601
69 | CTCACCGA | 0.0883
70 | GTACCTAC | -0.299
71 | GGTGTTCA | -0.12
72 | AGGTGACC | -0.0761
73 | CGAGCTGA | 0.00817
74 | AGCAGCAT | 0.0143
75 | TCCTGGAA | -0.281

Row | Sequence | PBM E-score
76 | GATGTATA | 0.0593
77 | ACTACTCC | 0.226
78 | CCCACACC | -0.276
79 | CCAAGGGA | -0.31
80 | ACCGACGC | -0.0813
81 | CCGCGTAC | 0.0711
82 | AACTTCTG | 0.0101
83 | CCTTCACA | -0.0308
84 | CACGGCGA | -0.0261
85 | AATCGAGC | -0.105
86 | ACACCAAG | -0.144
87 | CTGACGGA | 0.0818
88 | ATCTGCAC | -0.145
89 | GCTGGATA | -0.158
90 | CATGTAGA | -0.0225
91 | GACTTTCC | 0.0329
92 | AGACGATG | -0.00954
93 | ATCCGACA | 0.0788
94 | CGTGACAG | -0.102
95 | CACCACAC | -0.103
96 | CAACATTG | 0.111
97 | CCGAAGCA | 0.0853
98 | AGCGCGGG | -0.109
99 | AACCGTCC | -0.109
100 | ATTAAGAG | 0.115

Row | Sequence | PBM E-score
101 | ACCAGCCC | 0.052
102 | GATGCCAC | -0.116
103 | GGTGTATA | -0.24
104 | ACCTTAAC | 0.0855
105 | AGTTTCGC | -0.031
106 | GCGGTGCC | -0.194
107 | GATGCCTA | -0.136
108 | CACTAGTA | 0.119
109 | GACTTACA | 0.104
110 | ACCTATAA | 0.0347
111 | AACAGATA | 0.155
112 | ATCGAGTC | 0.0272
113 | CTGCTGTC | -0.0435
114 | CAGTGGGG | -0.381
115 | GAGGAAAC | -0.0262
116 | TAAATCGA | 0.149
117 | ACCAGGCC | -0.123
118 | CCCGCTAA | -0.246
119 | CAAAGCCA | -0.0132
120 | GGGTACCC | -0.155
121 | CATACATC | -0.0196
122 | CCCAGCAC | -0.27
123 | AATACTGG | -0.0585
124 | GCGTCCTA | -0.336
125 | CCCGGCCG | -0.0961

Row | Sequence | PBM E-score
126 | CGTAAAGA | 0.103
127 | CTGCTAGA | 0.00847
128 | CAGACCCA | -0.221
129 | CATATCAG | 0.0554
130 | GATTGCGA | 0.0896
131 | AGATTCTG | -0.15
132 | CGGTTGAC | 0.0738
133 | ACGCCAGA | -0.218
134 | CAAGCTAA | -0.0565
135 | AGACTCCG | 0.47
136 | ATACGGGA | -0.218
137 | CGATTGAC | -0.0081
138 | CCTATATA | 0.091
139 | ACCCGACA | -0.112
140 | CAACTTCG | 0.0403
141 | AATATTTG | 0.22
142 | AGCGTCCA | -0.07
143 | CTTCCTGA | -0.0817
144 | CGCGGTGC | -0.164
145 | AAACAGTG | -0.0323
146 | ATCCACAT | 0.166
147 | AGGGGAGG | -0.287
148 | ACGGCTTA | -0.0811
149 | CGCACACC | -0.178
150 | AACTAGAG | 0.0891

Row | Sequence | PBM E-score
151 | TGACTGAA | -0.163
152 | ATCTACCG | 0.231
153 | AGACACGA | -0.0814
154 | ACAATCTA | 0.0253
155 | GGGATGCA | -0.101
156 | GCTTAGCC | -0.129
157 | CATCTGGG | -0.245
158 | GACTCGCC | -0.158
159 | GATACTCA | 0.145
160 | CCGAGTGA | 0.153
161 | ACTAGAGG | -0.0643
162 | ATCACTCA | -0.0276
163 | GATCTAAA | 0.0474
164 | GGGAGCGA | -0.287
165 | TTAGGCAA | 0.0414
166 | CCATACGG | -0.0064
167 | ACAACACG | -0.0103
168 | AGATTTAT | 0.217
169 | GGGGACGA | -0.0278
170 | AACATAAA | 0.0937
171 | AATTACAA | 0.175
172 | AACGCACT | 0.0273
